# Measurements taken from patent publication US11618753B2 (priority 2018, dated 2023).
# Tested on: MLKL phosphorylation, HT29-L23 human colorectal adenocarcinoma cells
# Assay: cells
# Conditions: read-out: pMLKL HCS Cell Assay (IC50, uM)
row,Structure (SMILES),IC50
1,"Nc1ncnn2c(-c3ccc(CF)c(C(=O)N[C@@H]4CN(C(=O)C5CC(F)C5)C[C@@H]4F)c3)cc(C(F)(F)F)c12 (stereo partly drawn) [Example 923, 5-[4-amino-5-(trifluoromethyl)pyrrolo[2,1-f][1,2,4]triazin-7-yl]-N-[(3R,4S)-4-fluoro-1-(3-fluorocyclobutanecarbonyl)pyrrolidin-3-yl]-2-(fluoromethyl)benzamide]",0.0053 µM
2,"Nc1ncnn2c(-c3cccc(C(=O)N[C@@H]4CN(C(=O)C5CC(F)(F)C5)C[C@@H]4F)c3F)cc(C(F)(F)F)c12 [Example 768, 3-[4-amino-5-(trifluoromethyl)pyrrolo[2,1-f][1,2,4]triazin-7-yl]-N-[(3R,4S)-1-(3,3-difluorocyclobutanecarbonyl)-4-fluoropyrrolidin-3-yl]-2-fluorobenzamide]",0.082 µM
3,"COc1ncc(-c2cc(CN3CC(F)(F)C3)c3c(N)ncnn23)cc1C(=O)N[C@@H]1CN(C(=O)[C@@](C)(O)C(F)(F)F)C[C@@H]1F [Example 1616, 5-{4-amino-5-[(3,3-difluoroazetidin-1-yl)methyl]pyrrolo[2,1-f][1,2,4]triazin-7-yl}-N-[(3R,4S)-4-fluoro-1-[(2R)-3,3,3-trifluoro-2-hydroxy-2-methylpropanoyl]pyrrolidin-3-yl]-2-methoxypyridine-3-carboxamide]",0.00024 µM
4,"CCC(O)(C(=O)N1C[C@H](F)[C@H](NC(=O)c2cc(-c3cc(C(F)(F)F)c4c(N)ncnn34)c(F)cc2C)C1)C(F)(F)F (stereo partly drawn) [Example 857, 5-[4-amino-5-(trifluoromethyl)pyrrolo[2,1-f][1,2,4]triazin-7-yl]-4-fluoro-N-[(3R,4S)-4-fluoro-1-[2-hydroxy-2-(trifluoromethyl)butanoyl]pyrrolidin-3-yl]-2-methylbenzamide]",0.0063 µM
5,"CCc1c(F)cc(-c2cc(C(F)(F)F)c3c(N)ncnn23)cc1C(=O)N[C@@H]1CN(C(=O)CC(C(F)(F)F)C(F)(F)F)C[C@@H]1F [Example 654, 54-[4-amino-5-(trifluoromethyl)pyrrolo[2,1-f][1,2,4]triazin-7-yl]-2-ethyl-3-fluoro-N-[(3R,4S)-4-fluoro-1-[4,4,4-trifluoro-3-(trifluoromethyl)butanoyl]pyrrolidin-3-yl]benzamide]",0.0067 µM
6,"COc1ncc(-c2cc(C(F)(F)F)c3c(N)ncnn23)cc1C(=O)NCCCOC(C)(C)C [Example 112, 5-[4-amino-5-(trifluoromethyl)pyrrolo[2,1-f][1,2,4]triazin-7-yl]-N-[3-(tert-butoxy)propyl]-2-methoxypyridine-3-carboxamide]",0.343 µM
7,"Nc1ncnn2c(-c3ccc(OCC(F)(F)F)c(C(=O)N[C@@H]4CN(C(=O)C5(F)CC5)C[C@@H]4F)c3)cc(C(F)(F)F)c12 [Example 1074, 5-[4-amino-5-(trifluoromethyl)pyrrolo[2,1-f][1,2,4]triazin-7-yl]-N-[(3R,4S)-4-fluoro-1-(1-fluorocyclopropanecarbonyl)pyrrolidin-3-yl]-2-(2,2,2-trifluoroethoxy)benzamide]",0.291 µM
8,"COc1ncc(-c2cc(C(F)(F)F)c3c(N)ncnn23)cc1C(=O)Nc1ncc(Cc2ccccc2)s1 [Example 1686, 5-(4-amino-5-(trifluoromethyl)pyrrolo[2,1-f][1,2,4]triazin-7-yl)-N-(5-benzylthiazol-2-yl)-2-methoxynicotinamide]",0.015 µM
9,"CC(C(=O)N1C[C@H](F)[C@H](NC(=O)c2cc(-c3cc(C(F)(F)F)c4c(N)ncnn34)cc(F)c2Cl)C1)C(F)(F)F (mixture of isomers) [Example 633, 5-[4-amino-5-(trifluoromethyl)pyrrolo[2,1-f][1,2,4]triazin-7-yl]-2-chloro-3-fluoro-N-[(3R,4S)-4-fluoro-1-(3,3,3-trifluoro-2-methylpropanoyl)pyrrolidin-3-yl]benzamide]",0.0038 µM
10,"COc1ncc(-c2cc(CN3CCC(F)(F)CC3)c3c(N)ncnn23)cc1C(=O)N[C@@H]1CN(C(=O)OC(C)C(F)(F)F)C[C@@H]1F (stereo partly drawn) [Example 1507, 1,1,1-trifluoropropan-2-yl (3R,4S)-3-(5-{4-amino-5-[(4,4-difluoropiperidin-1-yl)methyl]pyrrolo[2,1-f][1,2,4]triazin-7-yl}-2-methoxypyridine-3-amido)-4-fluoropyrrolidine-1-carboxylate]",0.00037 µM
11,"Cc1ccc(-c2cc(C(F)(F)F)c3c(N)ncnn23)c(F)c1C(=O)N[C@@H]1CN(C(=O)C(C)(C)F)C[C@@H]1F [Example 753, 3-[4-amino-5-(trifluoromethyl)pyrrolo[2,1-f][1,2,4]triazin-7-yl]-2-fluoro-N-[(3R,4S)-4-fluoro-1-(2-fluoro-2-methylpropanoyl)pyrrolidin-3-yl]-6-methylbenzamide]",0.025 µM
12,"Cc1nc(C)c(-c2cc(C(F)(F)F)c3c(N)ncnn23)cc1C(=O)N[C@@H]1CN(C(=O)c2ccccc2)C[C@@H]1F [Example 1189, 5-[4-amino-5-(trifluoromethyl)pyrrolo[2,1-f][1,2,4]triazin-7-yl]-N-[(3R,4S)-1-benzoyl-4-fluoropyrrolidin-3-yl]-2,6-dimethylpyridine-3-carboxamide]",0.027 µM
13,"COc1ncc(-c2cc(CN3CCC(F)(F)CC3)c3c(N)ncnn23)cc1C(=O)N[C@@H]1CN(C(=O)OC2(C)CC2)C[C@@H]1F [Example 1519, 1-methylcyclopropyl (3R,4S)-3-(5-{4-amino-5-[(4,4-difluoropiperidin-1-yl)methyl]pyrrolo[2,1-f][1,2,4]triazin-7-yl}-2-methoxypyridine-3-amido)-4-fluoropyrrolidine-1-carboxylate]",0.0037 µM
14,"CCc1ccc(-c2cc(C(F)(F)F)c3c(N)ncnn23)c(F)c1C(=O)N[C@@H]1CN(C(=O)CC(O)(C(F)(F)F)C(F)(F)F)C[C@@H]1F [Example 571, 3-[4-amino-5-(trifluoromethyl)pyrrolo[2,1-f][1,2,4]triazin-7-yl]-6-ethyl-2-fluoro-N-[(3R,4S)-4-fluoro-1-[4,4,4-trifluoro-3-hydroxy-3-(trifluoromethyl)butanoyl]pyrrolidin-3-yl]benzamide]",0.014 µM
15,"COc1ncc(-c2cc(C(F)(F)F)c3c(N)ncnn23)cc1C(=O)N[C@@H]1CN(C2CCc3cc(F)ccc32)C[C@@H]1F (mixture of isomers) [Example 1356, 5-[4-amino-5-(trifluoromethyl)-pyrrolo[2,1-f][1,2,4]triazin-7-yl]-N-[(3R,4S)-4-fluoro-1-(5-fluoro-2,3-dihydro-1H-inden-1-yl)pyrrolidin-3-yl]-2-methoxypyridine-3-carbox-amide]",0.042 µM
16,"Nc1ncnn2c(-c3ccc(Cl)c(C(=O)N[C@@H]4CN(C(=O)c5ccncc5)C[C@@H]4F)c3)cc(C(F)(F)F)c12 [Example 950, 5-[4-amino-5-(trifluoromethyl)pyrrolo[2,1-f][1,2,4]triazin-7-yl]-2-chloro-N-[(3R,4S)-4-fluoro-1-(pyridine-4-carbonyl)pyrrolidin-3-yl]benzamide]",0.069 µM
17,"COc1ncc(-c2cc(C(F)(F)F)c3c(N)ncnn23)cc1C(=O)N[C@@H]1CN(S(=O)(=O)C(c2ccccc2)C(F)(F)F)C[C@@H]1F (stereo partly drawn) [Example 1498, 5-[4-amino-5-(trifluoromethyl)pyrrolo[2,1-f][1,2,4]triazin-7-yl]-N-[(3R,4S)-4-fluoro-1-(2,2,2-trifluoro-1-phenylethanesulfonyl)pyrrolidin-3-yl]-2-methoxypyridine-3-carboxamide]",0.223 µM
18,"C[C@@](O)(C(=O)N1C[C@H](F)[C@H](NC(=O)c2cccc(-c3cc(CN4CC(F)(F)C4)c4c(N)ncnn34)c2)C1)C(F)(F)F [Example 1180, 3-{4-amino-5-[(3,3-difluoroazetidin-1-yl)methyl]pyrrolo[2,1-f][1,2,4]triazin-7-yl}-N-[(3R,4S)-4-fluoro-1-[(2R)-3,3,3-trifluoro-2-hydroxy-2-methylpropanoyl]pyrrolidin-3-yl]benzamide]",0.0011 µM
19,"COc1ccc(-c2cc(C(F)(F)F)c3c(N)ncnn23)cc1C(=O)N[C@@H]1CN(C(=O)C2CC(F)C2)C[C@@H]1F (stereo partly drawn) [Example 1133, 5-[4-amino-5-(trifluoromethyl)pyrrolo[2,1-f][1,2,4]triazin-7-yl]-N-[(3R,4S)-4-fluoro-1-(3-fluorocyclobutanecarbonyl)pyrrolidin-3-yl]-2-methoxybenzamide]",0.0095 µM
20,"Cc1nc(C)c(-c2cc(C(F)(F)F)c3c(N)ncnn23)cc1C(=O)N[C@@H]1CN(C(=O)c2ccccc2F)C[C@@H]1F [Example 1190, 5-[4-amino-5-(trifluoromethyl)pyrrolo[2,1-f][1,2,4]triazin-7-yl]-N-[(3R,4S)-4-fluoro-1-(2-fluorobenzoyl]pyrrolidin-3-yl]-2,6-dimethylpyridine-3-carboxamide]",0.012 µM
21,"COc1ncc(-c2cc(C(F)(F)F)c3c(N)ncnn23)cc1C(=O)NC1CN(Cc2ccc(F)cc2)CC1F (racemic) [Example 213, 5-[4-amino-5-(trifluoromethyl)pyrrolo[2,1-f][1,2,4]triazin-7-yl]-N-{4-fluoro-1-[(4-fluorophenyl)methyl]pyrrolidin-3-yl}-2-methoxypyridine-3-carboxamide]",0.0023 µM
22,"Cc1cc(F)c(-c2cc(C(F)(F)F)c3c(N)ncnn23)cc1C(=O)N[C@@H]1CN(C(=O)c2cccc(F)c2F)C[C@@H]1F [Example 836, 5-[4-amino-5-(trifluoromethyl)pyrrolo[2,1-f][1,2,4]triazin-7-yl]-N-[(3R,4S)-1-(2,3-difluorobenzoyl)-4-fluoropyrrolidin-3-yl]-4-fluoro-2-methylbenzamide]",0.0052 µM
23,"COc1ncc(-c2cc(C(F)(F)F)c3c(N)ncnn23)cc1C(=O)NC1CN(CC2CCCCO2)CC1F (racemic) [Example 191, 5-[4-amino-5-(trifluoromethyl)pyrrolo[2,1-f][1,2,4]triazin-7-yl]-N-{4-fluoro-1-[(oxan-2-yl)methyl]pyrrolidin-3-yl}-2-methoxypyridine-3-carboxamide]",0.152 µM
24,"Cc1ccc(-c2cc(C(F)(F)F)c3c(N)ncnn23)cc1C(=O)N[C@@H]1CN(C(=O)c2cn(C)cn2)C[C@@H]1F [Example 1028, 5-[4-amino-5-(trifluoromethyl)pyrrolo[2,1-f][1,2,4]triazin-7-yl]-N-[(3R,4S)-4-fluoro-1-(1-methyl-1H-imidazole-4-carbonyl)pyrrolidin-3-yl]-2-methylbenzamide]",0.254 µM
